# Assay results reported in the supplement of paper PMC7580552.
# Counter-ions that a name gives are not always drawn. This is one part of the list. Most values come without repeats; read them as rough.
# Test system: Escherichia coli W3110
# Test: planktonic growth (OD600) relative to untreated control; higher = more growth
# Conditions: 10 µM; 20-24 h; 30 °C; TB
# 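Also: stationary (unshaken) cultures in 96-well plates, started at OD600 0.05 from mid-exponential cells, with compounds supplied from DMSO stocks.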
row,SMILES,planktonic growth
1,c1ccc2c(c1)OCC(C1=NCCN1)O2 (centres undefined) [Idazoxan hydrochloride],103%
2,CCCCCC[C@H]1C(=O)O[C@H](C)[C@H](NC(=O)c2cccc(NC=O)c2O)C(=O)O[C@@H](C)[C@@H]1OC(=O)CC(C)C [Antimycin A],97%
3,CC[N+]1(C)CCCC(OC(=O)C(O)(c2ccccc2)c2ccccc2)C1 (centres undefined) [Pipenzolate bromide],95%
4,COc1cc2c(c(OC)c1OC)-c1ccc(OC)c(=O)cc1[C@@H](NC(C)=O)CC2 [Colchicine],102%
5,O=C(NCNC(=O)NC1C(=O)NC(=O)N1CO)NC1C(=O)NC(=O)N1CO (centres undefined) [Imidurea],86%
6,CC(=O)O[C@H]1CC[C@@]2(C)C(=CC[C@@H]3[C@@H]2CC[C@]2(C)C(=O)CC[C@@H]32)C1 [Dehydroisoandosterone 3-acetate],94%
7,CN1C[C@H](CNC(=O)OCc2ccccc2)C[C@@H]2c3cccc4c3c(cn4C)C[C@H]21 [Metergoline],108%
8,Oc1ccc2c3c1O[C@H]1[C@@H](O)CC[C@@]4(O)[C@@H](C2)N(CC2CCC2)CC[C@]314 [Nalbuphine hydrochloride],97%
9,CC(C)c1cccc(C(C)C)c1O [Propofol],97%
10,C[C@]12CC[C@H](O)C[C@H]1CC[C@@H]1[C@@H]2CC[C@]2(C)[C@@H](C3=CC(=O)OC3)CC[C@]12O [Digitoxigenin],99%
11,C[C@]12CCC(=O)C=C1C=C[C@@H]1[C@@H]2CC[C@@]2(C)[C@H]1CC[C@@]2(O)CCC(=O)O [Canrenoic acid potassium salt],97%
12,CCCC(C)C1(CC)C(=O)NC(=O)NC1=O (centres undefined) [Pentobarbital],102%
13,C=CCN1CC[C@]23c4c5ccc(O)c4O[C@H]2C(=O)CC[C@@]3(O)[C@H]1C5 [Naloxone hydrochloride],96%
14,CC(=O)O[C@H]1C[C@@H]2CC[C@@H]3[C@H](CC[C@@]4(C)[C@H]3C[C@H]([N+]3(C)CCCCC3)[C@@H]4OC(C)=O)[C@@]2(C)C[C@@H]1[N+]1(C)CCCCC1 [Pancuronium bromide],103%
15,c1ccc2c(c1)Nc1ccccc1S2 [Phenothiazine],101%
16,CC(NC(C)(C)C)C(=O)c1cccc(Cl)c1 (centres undefined) [Bupropion hydrochloride],106%
17,"CN1CCC2(C)c3cc(O)ccc3N(C)C12 (single isomer, unassigned; (-)) [(-)-Eseroline fumarate salt]",110%
18,CN1CCN(C(=O)O[C@H]2c3nccnc3C(=O)N2c2ccc(Cl)cn2)CC1 [Eszopiclone],101%
19,O=C1CC[C@@]2(O)[C@H]3Cc4ccc(O)c5c4[C@@]2(CCN3CC2CC2)[C@H]1O5 [Naltrexone hydrochloride dihydrate],101%
20,CN[C@@H]1[C@@H](O)[C@@H](O[C@@H]2[C@@H](O)[C@H](O[C@H]3O[C@H](CN)CC[C@H]3N)[C@@H](N)C[C@H]2N)OC[C@]1(C)O.CN[C@@H]1[C@@H](O)[C@@H](O[C@@H]2[C@@H](O)[C@H](O[C@H]3O[C@H]([C@@H](C)N)CC[C@H]3N)[C@@H](N)C[C@H]2N)OC[C@]1(C)O.CN[C@@H]1[C@@H](O)[C@@H](O[C@@H]2[C@@H](O)[C@H](O[C@H]3O[C@H]([C@@H](C)NC)CC[C@H]3N)[C@@H](N)C[C@H]2N)OC[C@]1(C)O [Gentamicine sulfate],45%
21,N[C@@H]1C[C@H]1c1ccccc1 [Tranylcypromine hydrochloride],91%
22,"NCC(CC(=O)O)c1ccc(Cl)cc1 (racemic) [Baclofen (R,S)]",112%
23,CN1[C@@H]2C[C@@H](OC(=O)[C@H](CO)c3ccccc3)C[C@H]1[C@@H]1O[C@@H]12 [Scopolamine hydrochloride],94%
24,C#C[C@]1(O)CC[C@H]2[C@@H]3CCC4=CC(=O)CCC4=C3C=C[C@@]21CC [Gestrinone],111%
